Reference: the supplement of paper PMC11417369
The other results are listed elsewhere or left out.

test system: PF3D7_0420300 AP2 domain 1 (GST-tagged); experiment: gcPBM binding intensity (ln(normalized median fluorescence intensity)); higher = stronger DNA binding
Method in brief: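 An Agilent 4 × 180k array carrying primer-extended double-stranded 36-bp intergenic genomic probes and negative controls received GST-tagged P. falciparum DNA-binding domains expressed in E. coli, about 25 μg on average, for 1 h. The binding buffer contained 1× PBS, 1% milk, 0.2 mg/ml BSA, 0.5% salmon testes DNA and 0.03% Triton X-100. Binding intensity is the top Masliner-normalised natural-log median intensity across replicate spots of either probe orientation, read after Alexa488 anti-GST antibody staining and a 488 nm scan.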

| Sequence | gcPBM binding intensity (ln) |
| --- | --- |
| TGATTTTTTCATATTCTACACACGTGAACAAATGTG [CACACA_site8987] | 9.34 |
| TTAATTATTATATAAGTGCAATAATAAAAAGTTGTA [GTGCAC_site9552] | 9.18 |
| TTGTTAATAAATAAATAAATAAATATATTTATATAT [GTGCAC_negctrl_site271] | 8.89 |
| ATATATATTTATATTTGTACGAATTAAAATTTTTTA [XGTACX_site5200] | 9.04 |
| ATTTAAAACAAAAGTAGTACGTCTAATAAATTCAAC [XGTACX_site4344] | 9.25 |
| TTATCAATAAAATGCACACACTGTAATATTATTAAA [CACACA_site6055] | 9.37 |
| ATAGCTTTTATTTAAAGTACAAAAAGGATGTTGAAA [XGTACX_site3810] | 9.04 |
| AGACAAAATGTTTGAAGTACTTTTTATCAAATTAAA [XGTACX_site8885] | 8.94 |
| AAAAAAAAAAAACACACACACACACCCATACATACA [CACACA_site707] | 10.2 |
| CAATTTTTTAAATGCACACAAAAGGAATAAATAAAT [CACACA_site544] | 9.46 |
| AAGAAGAAATGCTTTGCATGCAAATTTTATGCCAAC [TGCATGCA_site721] | 9.21 |
| AACAATTGGAATAACGCATGCATTTATAATATAGAA [TGCATGCA_site298] | 9.25 |
| TGAATATTCCTATGCACACAAATTAAAATACATAAT [CACACA_site4403] | 9.5 |
| ACAAATTTATACTTAAAACACACGTAATCATTTATA [CACACA_site1636] | 9.23 |
| TAAAATAATTTATGCATACACACATATATATATATA [CACACA_site4021] | 9.46 |
| TACAAAAAAAAAAAATAGATAAAATAATAATCAAAT [TGCATGCA_negctrl_site524] | 9.41 |
| ATATATTGAACATATTGTACATTTTGTTAATATTTT [XGTACX_site7622] | 9.21 |
| AAATATATAAAATATACACACAGTAATATATATATA [CACACA_site1385] | 9.54 |
| TCTTGTTTTCAAATATGTACATAGAATAGACATTTT [XGTACX_site684] | 8.91 |
| TATATATAAATATTCAGTACATAGTATTATTAAGTA [XGTACX_site1980] | 9.17 |
| ATAAAATGAACAAACACACACACATATATATATATA [CACACA_site2402] | 9.89 |
| AAGTTTTATTTAAATTGTACTAAAATTTTTATATTA [XGTACX_site7065] | 9.05 |

| Sequence | gcPBM binding intensity (ln) |
| --- | --- |
| TATTTAAGAATATGAAGTACATATATTATTTAAAAA [XGTACX_site7897] | 9 |
| CATATAAATAAATACACACACACACGCCTTATAATT [CACACA_site7830] | 10.2 |
| TATATAGGTATCATTACACACATGTATACTTATTTG [CACACA_site7864] | 9.61 |
| CCTAAAAAAAAGAAATGATATACATATGTATATATA [GTGCAC_negctrl_site100] | 9.14 |
| TTTTTCTTTCTCTATTGTACACATGGAAACACATAA [XGTACX_site4601] | 9.23 |
| TACAATTTTTTAAATGCACACAAAAGGAATAAATAA [CACACA_site8075] | 9.49 |
| TAATATATGTATTGCACACCTATAACCATTATTTCT [CACACA_site1498] | 9.51 |
| AAAAGCAAGTTCCAGGGTACATATATATGAAAAAAC [XGTACX_site2408] | 9.58 |
| AAATATATTTTACATTGTACATGAATAAACTATAAA [XGTACX_site2080] | 9.13 |
| AAAAATTAAATAAATTTACACACTAATAATTACATA [CACACA_site8260] | 9.3 |
| AAAAATATGTCCATGAAAAGGATAGGCAGGTAATCA [XGTACX_negctrl_site93] | 9.5 |
| ACGTTAAAATATTGGGTGCTAACACAATAAAAATAA | 9.29 |
| TATATGTTATATTGGACACACACAATAAACATTATG [CACACA_site8480] | 9.62 |
| AAACATAAAGAAAAAAAAAATATATATTTATTTATT [GTGCAC_negctrl_site357] | 9.13 |
| ATATATTAACAAAAGGTGCTTTTGGCAAAGTATAAT | 9.43 |
| ATAAAAATGGTGTTAACACACACATATATATATATA [CACACA_site8089] | 9.48 |
| TTATTTAAATATTGATGTACTCTCCTTATTATAATA [XGTACX_site1240] | 9.26 |
| GGTAATTATTTTGGTTGTACTCAAATATATAATATT [XGTACX_site291] | 9.45 |
| ATGTCATAAATGTACGCACACATACATAAACATATA [CACACA_site4530] | 9.37 |
| TTCATTTTAATTTCCAGTACACATATATATACATAT [XGTACX_site558] | 9.42 |
| ATTTATTTCTATAATACACACAAATATCTTAATTAA [CACACA_site7801] | 9.31 |
| AATATAATACAATATTGTACATAATATAAATTAAAA [XGTACX_site4064] | 9.21 |

| Sequence | gcPBM binding intensity (ln) |
| --- | --- |
| ATTATATTTATGTTGGTGCATTATACATGAAATTTA | 9.2 |
| TTTACAATATAAAATACACACACACTAACATATATT [CACACA_site9231] | 9.89 |
| TATATAAATGTTATCACACACTCACGTTTGACAAAA [CACACA_site6468] | 9.33 |
| ATACAATAAAATAAGTTTGAATAAAATTAAATATAT [CACACA_negctrl_site877] | 9.27 |
| TCCTTTTTTAAAAGTTGTACATTATTGTTATTTGTT [XGTACX_site4686] | 9.38 |
| TTCCTCTTAATATGTGCACACTAAATTATAACCTAA [CACACA_site5751] | 9.27 |
| GAAGGAAATAATAGTAGTACAAATGGTAAGAAATAT [XGTACX_site5845] | 9.7 |
| GAGAAAGATATATACACACACATAAATATGTACATA [CACACA_site6975] | 9.88 |
| TATATAGGTAAAAAATGTACTTATATTGAATATATT [XGTACX_site4414] | 9.19 |
| TTTCCCAAGCTTATTACACACAAGTAGAATAAGCTT [CACACA_site1561] | 9.06 |
| TTTACAATATTAAAATGTACATATAAAATAAATAAA [XGTACX_site8367] | 9.15 |
| AATTTGTTAATATTTTGTACACATAATATAAAAACA [XGTACX_site2224] | 9.2 |
| GATATCAAATATAAATGTACAAATTATATATACATA [XGTACX_site3228] | 9.25 |
| TTCTTATTTATTTTCTTCTCCTTCCTCAAATTTTTT [GTGCAC_negctrl_site592] | 9.37 |
| TTCATATATTTTAAAGCATGCATTCATCTTATAGTT [TGCATGCA_site800] | 9.19 |
| TTTACGCTATAGGAGAGTACTTATAAAATCCTGTGT [XGTACX_site2364] | 9.24 |
| TATTTTTCCATTGGGGGTACATGTGTTATATTTATT [XGTACX_site5914] | 10.1 |
| TACAAAATATATATGACACACACAAAAAAAGTATAT [CACACA_site8455] | 9.9 |
| AGACGAAAATAATAAAGTACTAAAAAAAAAAAAAAA [XGTACX_site927] | 8.78 |
| ATATATATGCATATATGTACTTAAAATATAAAGGCA [XGTACX_site3256] | 9.04 |
| ATTTTTTCTGTCTTAATTGGACCCACTGCAAATGGG [CACACA_negctrl_site1158] | 8.87 |
| ATAATACAAAAAAAAAAAAAAAATAAAATAATAAAA [GTGCAC_negctrl_site722] | 9.33 |

| Sequence | gcPBM binding intensity (ln) |
| --- | --- |
| AAGTAATACAACACGCACATATATATATATATATAT [GTGCAC_negctrl_site89] | 9.47 |
| TACCTAAATAAATGGACACACACATATATATATATA [CACACA_site8407] | 9.51 |
| TTATAGCCTGTGAAGAGTACATTTTTATTTTTTATT [XGTACX_site4105] | 9.31 |
| TATTTTTAAATATAAAGTACTTATATTAACTACGAA [XGTACX_site1524] | 8.83 |
| TTATACTGTTTCAGAAAAATAAAGAATGAAAGTATT [XGTACX_negctrl_site230] | 9.23 |
| TTTTTATATTCCCCCAGTACATATATAATAGTAGTA [XGTACX_site7927] | 9.44 |
| TGCAACAAAATAAACACACACACACCCCCACAAAAA [CACACA_site3388] | 10.3 |
| AATAAAAAAATAAAATGTACATACAAATAAATAAAT [XGTACX_site5153] | 9.63 |
| TATTTTAATGAAGCATTTAAGGGAAAAAAAAAAAAA [TGCATGCA_negctrl_site606] | 8.85 |
| TTGTATACATAAAATGGTACAGAATATATAATTCTA [XGTACX_site7236] | 9.11 |
| ATAAGATGATGGAACTGTAATATATATATATATATA [CACACA_negctrl_site839] | 9.19 |
| TTTAAGAGTTGCACACGTACAAAAAAAAAAAAAAAA [XGTACX_site7406] | 8.86 |
| GTATACCAACATATTATACACACCTTTATATTTTTT [CACACA_site2153] | 9.6 |
| TTAATTAAAATTTATACATGCATAAAAGAAATACAC [TGCATGCA_site537] | 9.45 |
| ATTACATGTTACTTAACACACATCTGGTGAAATAAT [CACACA_site171] | 9.46 |
| ATTTTTTTCTTTTCTTTTTTCTTTTTTTTTTTTGGT [CACACA_negctrl_site1146] | 9.56 |
| GTAATGAAACATTGCACACATATAATAATATAATAT [CACACA_site1422] | 9.59 |
| TATATTACTTAAAATACACACCATGGAAAAGTTTTA [CACACA_site5443] | 9.38 |
| TTCTGAACAAAATTATATATTTATTTTTATTTTCAT [CACACA_negctrl_site422] | 9.18 |
| ATTATTTTTCTATGTGTGCACGTGTGGAATGTGTCT [GTGCAC_site9507] | 9.63 |
| TTTTTATTTTTTTTATGTACACAAATGATATACATA [XGTACX_site5910] | 9.23 |
| AGGATACACGGACACACACACATATAGATTTATATA [CACACA_site6552] | 9.93 |
